The whole screen tested about 370,000 compounds, of which about 150 (0.041%) were called active. Inconclusive means that the source gave no clear call. Such entries were picked first, then a sample of the others. Calls come from the whole dose curve; as a rule, active = well fitted inhibition curve with a large enough effect; inconclusive = small, poorly fitted or top-dose-only effect; inactive = flat fitted curve, though single readings scatter. Potencies of inconclusive entries are left out as doubtful fits.
Target: Beta-lactamase (Escherichia coli (strain K12)) (UniProt P00811)
UniProt P00811, sequence (P00811 whole entry, looked up): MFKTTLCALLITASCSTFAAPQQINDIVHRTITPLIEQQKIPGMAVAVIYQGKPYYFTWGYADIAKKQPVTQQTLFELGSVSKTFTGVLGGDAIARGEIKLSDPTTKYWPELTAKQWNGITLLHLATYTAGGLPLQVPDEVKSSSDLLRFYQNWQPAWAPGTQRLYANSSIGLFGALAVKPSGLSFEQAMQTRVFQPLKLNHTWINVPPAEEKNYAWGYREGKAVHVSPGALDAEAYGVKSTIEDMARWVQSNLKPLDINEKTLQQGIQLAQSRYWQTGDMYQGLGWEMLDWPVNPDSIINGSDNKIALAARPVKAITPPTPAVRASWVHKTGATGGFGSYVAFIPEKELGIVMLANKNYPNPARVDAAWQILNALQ
Experiment: qHTS Inhibitors of AmpC Beta-Lactamase (assay with detergent); note: nearly all actives have a fitted effect of over 25% in size
Details: AmpC hydrolysis of nitrocefin, absorbance 480 nm, 0.01% Triton; series mostly up to 114 µM
Method in brief: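 AmpC (5.3 nM in the dispensed reagent) in 20 mM phosphate pH 7.0 with 0.01% (detergent screen) or 0.0001% Triton X-100 was preincubated with compounds for 15 min at room temperature. Nitrocefin was then added from an 800 uM solution, and hydrolysis was followed at 480 nm.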
Potency is the fitted concentration of half-maximal effect; tags give direction and shape of the fitted curve.

For `COc1ccc(NC(=O)CN2CCN(C3c4ccccc4-c4ccccc43)CC2)cc1`, which Potency is on record?
The Potency was inconclusive [inhibitor, partial curve].

Which Potency does the source give for `CN(C)CCNC(=O)Cn1nc(-c2ccc(Cl)cc2)ccc1=O` here?
The Potency was inconclusive [inhibitor, full curve].

`O=P(O)(CCc1ccccn1)CN1CCOCC1` was tested. Which Potency did it give?
Its Potency is inconclusive [inhibitor, partial curve, poor fit].

How did the Potency turn out when `CCOC(=O)c1c(-c2ccccc2)csc1NC(=O)c1ccc(N2C(=O)CCC2=O)cc1` was run?
The Potency was “inactive”.

How did the Potency turn out when `O=C(OCC(=O)N1CCN(c2ccccc2)CC1)c1ccco1` was run?
Its Potency is “inactive”.

Which Potency does the source give for `Cc1csc2ncc(C(=O)N3CCCc4ccccc43)c(=O)n12` here?
Its Potency is inconclusive [inhibitor, full curve, poor fit].

Which Potency does the source give for `Cc1ccc(NC(=O)CCc2c[nH]c3ccccc23)nc1` here?
Its Potency is inconclusive [inhibitor, partial curve].

For `CCOc1ccc2[nH]c(=O)c(CN(CC3COCCO3)C(=O)c3ccco3)cc2c1` (stereo not drawn), which Potency is on record?
The Potency was “inactive”.

`Cc1nc2ccc(NC(=S)NC(C)C)cc2nc1C` was tested. Which Potency did it give?
Its Potency is inconclusive [inhibitor, partial curve, poor fit].

Which Potency does the source give for `CC1CCCCN1C(=O)CSc1nnc(Cc2ccccc2)n1C` (stereo not drawn) here?
The Potency was inconclusive [inhibitor, single point].

With `COc1ccc(OC)c(NC(=O)CSc2nc(C)cs2)c1` as the compound, how does the Potency read?
The Potency was inconclusive [inhibitor, partial curve, poor fit].

Which Potency does the source give for `CCOc1ccc(CCNC(=O)COC(=O)Cn2nc(C)c([N+](=O)[O-])c2C)cc1OCC` here?
The Potency was inconclusive [inhibitor, full curve, poor fit].

Which Potency does the source give for `O=C(Cn1c(=O)nc(-c2ccccc2)c2ccccc21)Nc1ccc(Cl)cc1F` here?
The Potency was “inactive”.

How did the Potency turn out when `O=C(O)CCc1nc(-c2cccs2)no1` was run?
Its Potency is inconclusive [inhibitor, single point].

Which Potency does the source give for `Cc1ccc2cc(C(c3nnnn3C3CCCC3)N3CCOCC3)c(=O)[nH]c2c1C` (stereo not drawn) here?
Its Potency is “inactive”.

For `O=C(c1ccccc1[N+](=O)[O-])N1CC2C3C=CC(C3)C2C1` (stereo not drawn), which Potency is on record?
Its Potency is inconclusive [inhibitor, single point].

Which Potency does the source give for `COC(=O)c1ccccc1NC(=O)n1cc(C)cn1` here?
The Potency was inconclusive [inhibitor, single point].

`CN(C)/C=N/c1ncn(-c2ncc(C(F)(F)F)cc2Cl)n1` was tested. Which Potency did it give?
Its Potency is “inactive”.

For `CCCCC1CCC(C(=O)NCc2ccc3c(c2)OCO3)CC1` (stereo not drawn), which Potency is on record?
Its Potency is inconclusive [inhibitor, full curve, poor fit].

Which Potency does the source give for `C#CCn1c(O)c(N=NC(=O)C(O)c2ccccc2)c2ccccc21` (stereo not drawn) here?
The Potency was “inactive”.

Which Potency does the source give for `COC(=O)c1ccc(C2CC(=O)Nc3cc(OC)c(OC)cc32)cc1` (stereo not drawn) here?
Its Potency is inconclusive [inhibitor, full curve, poor fit].

For `O=C1CC(Sc2nnc(-c3ccccc3O)o2)C(=O)N1c1ccccc1` (stereo not drawn), which Potency is on record?
Its Potency is inconclusive [inhibitor, full curve].

Which Potency does the source give for `NC(=O)CSc1nnc(-c2cc(-c3cccs3)nc3ccccc23)o1` here?
Its Potency is “inactive”.

Which Potency does the source give for `CC1CCN(c2ccc(-c3cccc(NS(=O)(=O)c4ccc(F)cc4F)c3)nn2)CC1` here?
Its Potency is inconclusive [inhibitor, full curve, poor fit].

For `NC(=O)c1cccc(-c2cccc(OC(=O)NC3CCCCC3)c2)c1`, which Potency is on record?
Its Potency is inconclusive [inhibitor, single point].

With `CNC(=O)C1CCC(=O)N1Cc1ccccc1Cl` (stereo not drawn) as the compound, how does the Potency read?
Its Potency is inconclusive [inhibitor, single point].

For `CC1/C(=N/O)CC(c2ccccc2)NC1c1ccccc1` (stereo not drawn), which Potency is on record?
Its Potency is inconclusive [inhibitor, full curve, poor fit].

For `CC(NC(=O)Nc1ccc(Cl)cc1)C(c1cccs1)N1CCOCC1` (stereo not drawn), which Potency is on record?
The Potency was inconclusive [inhibitor, full curve].

For `COc1ccc(NC(=O)/C=C/c2ccc(F)cc2)cn1`, which Potency is on record?
Its Potency is inconclusive [inhibitor, partial curve, poor fit].

For `COC(=O)[C@H]1CN(C(=O)c2ccccc2)C(=O)N1`, which Potency is on record?
The Potency was inconclusive [inhibitor, full curve, poor fit].

`O=S(=O)(NCC1CCCO1)c1ccc(S(=O)(=O)N2CCCC2)cc1` (stereo not drawn) was tested. Which Potency did it give?
Its Potency is inconclusive [inhibitor, single point].

`COc1cc(OC)c(N(C)C(=O)Nc2cn(CC(C)C)c(=O)c3ccccc23)cc1Cl` was tested. Which Potency did it give?
The Potency was “inactive”.

How did the Potency turn out when `CCn1c(=NC(=O)c2ccc(S(=O)(=O)N3CCOCC3)cc2)sc2cccc(OC)c21` was run?
The Potency was inconclusive [inhibitor, full curve, poor fit].

Which Potency does the source give for `CC(=O)Nc1ccc(S(=O)(=O)N(C)CC(=O)OCC(=O)c2cc(C)n(-c3ccc4c(c3)OCO4)c2C)cc1` here?
Its Potency is inconclusive [inhibitor, partial curve, poor fit].

How did the Potency turn out when `O=C(OCn1ncc(Br)c(Br)c1=O)c1c(F)cccc1F` was run?
Its Potency is inconclusive [inhibitor, single point].

With `CCOc1ncccc1C(=O)Nc1ccc(OC)c(S(=O)(=O)N2CCOCC2)c1` as the compound, how does the Potency read?
Its Potency is inconclusive [inhibitor, full curve, poor fit].

For `COc1cccc(OC)c1C(=O)Nc1cc(C)nn1-c1nc2ccccc2[nH]1`, which Potency is on record?
Its Potency is “inactive”.

With `CCCCCN(C(=O)CN1CCC(Cc2ccccc2)CC1)c1c(N)n(CCCC)c(=O)[nH]c1=O` as the compound, how does the Potency read?
The Potency was “inactive”.

For `Cc1cccc(NC(=O)C2NC(=O)CC2c2ccccc2)c1C` (stereo not drawn), which Potency is on record?
The Potency was inconclusive [inhibitor, full curve].

How did the Potency turn out when `COc1ccc(C)cc1N(C(=O)COc1ccccc1)c1nc2ccccc2s1` was run?
The Potency was “inactive”.

`COc1cccc(C(C(=O)NC2CCCCC2)N(C(=O)c2ccco2)c2ccc(-n3cnnn3)c(C)c2)c1` (stereo not drawn) was tested. Which Potency did it give?
The Potency was “inactive”.

For `Cc1ccc2nc(NNC(=O)c3ccc4c(c3)OCCO4)sc2c1`, which Potency is on record?
The Potency was inconclusive [inhibitor, partial curve, poor fit].

With `CC(=O)O[C@H]1C(=O)[C@@]2(C)[C@H]([C@H](OC(=O)c3ccccc3)[C@]3(O)C[C@H](OC(=O)[C@H](O)[C@@H](NC(=O)c4ccccc4)c4ccccc4)C(C)=C1C3(C)C)[C@]1(OC(C)=O)CO[C@@H]1C[C@@H]2O` as the compound, how does the Potency read?
The Potency was inconclusive [inhibitor, partial curve].

Reference: PubChem BioAssay AID485294 (National Center for Advancing Translational Sciences (NCATS), 2010)
